Assay results: PubChem BioAssay AID2147 (National Center for Advancing Translational Sciences (NCATS), 2009)
“And” between values parts separate entries of the source, which are not always exact repeats. Equal values may be shown once. Among all 230,000 compounds or so, about 3,600 (1.6%) were called active. This list was built around the results that the source calls inconclusive (neither active nor inactive); the mix of calls is not that of the screen. The call rests on the fitted dose curve; in most records, active means well fitted inhibition curve with a large enough effect (not every such curve was filed as active); inconclusive means small, poorly fitted or top-dose-only effect, or another doubt; inactive means no such curve, though single readings can be large or run the other way. Where the call is inconclusive, the potency comes from a doubtful curve fit.

Target: Lysine-specific demethylase 4E (Homo sapiens) (UniProt B2RXH2)
UniProt B2RXH2, sequence (B2RXH2 whole entry, looked up, the tested form may be a part): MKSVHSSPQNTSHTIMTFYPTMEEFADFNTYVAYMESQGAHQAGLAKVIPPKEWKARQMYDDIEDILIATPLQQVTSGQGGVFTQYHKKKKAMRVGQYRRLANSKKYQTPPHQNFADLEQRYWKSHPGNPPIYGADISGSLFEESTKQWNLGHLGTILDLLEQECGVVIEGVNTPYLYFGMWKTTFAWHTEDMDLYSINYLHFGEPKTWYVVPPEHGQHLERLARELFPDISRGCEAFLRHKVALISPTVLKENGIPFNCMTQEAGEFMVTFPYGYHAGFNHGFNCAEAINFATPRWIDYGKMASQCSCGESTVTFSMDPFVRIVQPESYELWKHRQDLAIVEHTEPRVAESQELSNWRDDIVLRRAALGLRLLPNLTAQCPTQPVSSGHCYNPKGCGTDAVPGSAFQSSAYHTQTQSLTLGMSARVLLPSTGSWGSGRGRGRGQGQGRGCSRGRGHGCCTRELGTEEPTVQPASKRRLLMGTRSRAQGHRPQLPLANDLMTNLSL
Experiment: qHTS Assay for Inhibitors of Human Jumonji Domain Containing 2E (JMJD2E)
Settings: JMJD2E catalytic domain, FDH-coupled NADH fluorescence (FDH is formaldehyde dehydrogenase); series mostly up to 57.1 µM
Further: nearly all actives have a fitted effect of over 50% in size.
Potency means the concentration at half of the fitted maximal effect; tags describe the fitted curve by direction and shape.

Question: For `CCCOC(=O)C1=C(C)NC2=C(C(=O)CC(C)(C)C2)C1c1cccnc1` (centres undefined), which Potency is on record?
Answer: The Potency was inconclusive: 28.2 µM [inhibitor, partial curve].

Question: `Cc1ccc2nc(N/N=C\c3ccc([N+](=O)[O-])o3)nc(-c3ccccc3)c2c1` was tested. Which Potency did it give?
Answer: Its Potency is “inactive”.

Question: Which Potency does the source give for `Cc1cc(C)c(OCC(=O)Nc2nnc(-c3ccco3)o2)c(C)c1` here?
Answer: Its Potency is “inactive”.

Question: For `COc1ccc(Cc2nnc(NC(=O)c3c(-c4ccccc4)noc3C)s2)cc1OC`, which Potency is on record?
Answer: The Potency was “inactive”.

Question: For `CN(C)CCC(=O)N1c2ccccc2Sc2ccc(Cl)cc21`, which Potency is on record?
Answer: Its Potency is inconclusive: 35.5 µM [inhibitor, single point].

Question: Which Potency does the source give for `CSc1ccc(/C=N/NC(=O)c2ccc(O)cc2)cc1` here?
Answer: Its Potency is inconclusive: 7.08 µM [inhibitor, single point].

Question: `CN1CCN(CCCNC(=O)c2cn(C3CCCCC3)c(=O)c3c2c2ccccc2n3C)CC1` was tested. Which Potency did it give?
Answer: Its Potency is inconclusive: 31.6 µM [inhibitor, partial curve].

Question: `O=C1CCCC/C1=C/Nc1ccc(C(=O)O)cc1` was tested. Which Potency did it give?
Answer: Its Potency is inconclusive: 22.4 µM [inhibitor, single point].

Question: Which Potency does the source give for `Cc1cc2ccccc2n1CCNC(=O)C1CCCCC1` here?
Answer: Its Potency is inconclusive: 39.8 µM [inhibitor, single point].

Question: `CCCCCCc1cc2cc(-c3nnc(-c4ccccc4)o3)c(=O)oc2cc1O` was tested. Which Potency did it give?
Answer: Its Potency is inconclusive: 3.16 µM [inhibitor, full curve].

Question: How did the Potency turn out when `O=C1C=C(Nc2ccc(Cl)cc2)CC(c2ccc(Cl)cc2)C1` (centres undefined) was run?
Answer: Its Potency is inconclusive: 39.8 µM [inhibitor, single point].

Question: `O=C(Nc1ccccc1C(=O)NCc1ccco1)c1ccco1` was tested. Which Potency did it give?
Answer: The Potency was “inactive”.

Question: How did the Potency turn out when `C#CCN(C)CCCOc1ccc(Cl)cc1Cl` was run?
Answer: Its Potency is “inactive and inconclusive: 39.8 µM [inhibitor, single point]”.

Question: With `CCOc1ccc2nc(SCC(=O)c3ccc(Cl)s3)sc2c1` as the compound, how does the Potency read?
Answer: The Potency was “inactive”.

Question: For `COCCN1CC(O)=C(c2nc3ccccc3c(=O)[nH]2)C1=N`, which Potency is on record?
Answer: Its Potency is inconclusive: 31.6 µM [inhibitor, partial curve].

Question: With `COc1ccc2cc3c(N)c(C(=O)N4CCCC4)sc3nc2c1` as the compound, how does the Potency read?
Answer: Its Potency is inconclusive: 31.6 µM [inhibitor, partial curve].

Question: How did the Potency turn out when `Cc1cc(-c2nn(-c3ccccc3F)cc2CNCCc2cnc[nH]2)c(C)s1` was run?
Answer: Its Potency is “inactive”.

Question: `Cc1nc(SCc2ccccc2)c([N+](=O)[O-])[nH]1` was tested. Which Potency did it give?
Answer: Its Potency is “inactive”.

Question: `COc1ccc(Cl)cc1C(=O)NNC(=O)CN1C(=O)C2CC=CCC2C1=O` (centres undefined) was tested. Which Potency did it give?
Answer: Its Potency is “inactive”.

Question: `CCCc1nc2sc3ccccc3c(=O)c2c(=O)n1Cc1ccc(OC)cc1` was tested. Which Potency did it give?
Answer: The Potency was “inactive”.

Question: For `CCCn1cnc2c1c(=O)n(CCCCC(C)=O)c(=O)n2C`, which Potency is on record?
Answer: Its Potency is “inactive”.

Question: With `COc1ccc(S(=O)(=O)Nc2cccc(F)c2)cc1C` as the compound, how does the Potency read?
Answer: Its Potency is “inactive”.

Question: How did the Potency turn out when `O=C(CCCN1C(=O)/C(=C\c2ccco2)SC1=S)Nc1ccc2ccccc2c1` was run?
Answer: The Potency was “inactive”.

Question: Which Potency does the source give for `O=C(NCc1ccccc1)C1=C[C@@H](c2ccc(C(F)(F)F)cc2)C[C@@H](OCc2ccc(CO)cc2)O1` here?
Answer: The Potency was inconclusive: 31.6 µM [inhibitor, single point].

Question: With `COc1cccc(CN2C(=O)N(C(C)C)C(N(O)C(=O)NC(C)C)C2(C)C)c1OC` (centres undefined) as the compound, how does the Potency read?
Answer: Its Potency is “inactive”.

Question: For `O=S(=O)(c1ccc(NC(=S)Nc2ccccc2)cc1)N1CCOCC1`, which Potency is on record?
Answer: The Potency was “inactive”.

Question: For `CC(C)OC(=O)CC(=O)CSc1nc2c(cc1C#N)CCCCCC2`, which Potency is on record?
Answer: Its Potency is inconclusive: 22.4 µM [inhibitor, partial curve].

Question: Which Potency does the source give for `COc1ccc(-c2cc3ccc(OCc4nn[nH]n4)cc3oc2=O)cc1OC` here?
Answer: Its Potency is inconclusive: 28.2 µM [inhibitor, partial curve].

Question: `O=C(CSc1nnnn1C1CCCCC1)NCc1cccs1` was tested. Which Potency did it give?
Answer: Its Potency is “inactive”.

Question: With `O=C(Nc1ccc(Cl)cc1Cl)c1n[nH]c(Cn2cncn2)n1` as the compound, how does the Potency read?
Answer: The Potency was “inactive”.

Question: `COc1ccc(-c2ccc(-c3nc4c(c(=O)[nH]c(=O)n4Cc4ccccc4)n3C)o2)c([N+](=O)[O-])c1` was tested. Which Potency did it give?
Answer: Its Potency is “inactive”.

Question: With `COc1ccc(NC(=O)/C(C#N)=C/c2ccc(OCc3ccccc3F)cc2)cc1` as the compound, how does the Potency read?
Answer: Its Potency is inconclusive: 35.5 µM [inhibitor, single point].

Question: Which Potency does the source give for `Cc1ccc(S(=O)(=O)NCCCNc2ccc([N+](=O)[O-])cc2)cc1` here?
Answer: Its Potency is “inactive”.

Question: How did the Potency turn out when `CCCCCCCCCCCCCCSCC(=O)O` was run?
Answer: Its Potency is “inactive”.

Question: `CC1=CC(C)(C)N(C(=O)c2ccccc2)c2ccc(C)cc21` was tested. Which Potency did it give?
Answer: Its Potency is “inactive”.

Question: Which Potency does the source give for `COCCOC(=O)C1=C(C)NC2=C(C(=O)CC(C)(C)C2)C1c1cc2c(cc1Br)OCO2` (centres undefined) here?
Answer: The Potency was inconclusive: 28.2 µM [inhibitor, single point].

Question: With `CC(=O)NCc1ccc(S(=O)(=O)N/N=C/c2ccc(Br)cc2)cc1` as the compound, how does the Potency read?
Answer: The Potency was inconclusive: 35.5 µM [inhibitor, single point].

Question: Which Potency does the source give for `Cc1ccc(-n2nc3cc(C)c(NC(=O)c4cccnc4)cc3n2)cc1` here?
Answer: The Potency was inconclusive: 31.6 µM [inhibitor, single point].

Question: Which Potency does the source give for `Cc1nc2cc3ccccc3cc2c(=O)[nH]1` here?
Answer: Its Potency is inconclusive: 14.1 µM [inhibitor, partial curve].

Question: How did the Potency turn out when `COc1ccc(CCN(Cc2cc3cc4c(cc3[nH]c2=O)OCO4)C(C)=O)cc1OC` was run?
Answer: Its Potency is inconclusive: 3.98 µM [inhibitor, single point].

Question: For `COc1ccc2c(c1)c(=O)oc1cc(OCC(=O)NC3CCCCC3)ccc12`, which Potency is on record?
Answer: The Potency was inconclusive: 7.08 µM [inhibitor, partial curve].

Question: `CCn1nc(C(=O)N2CCN(Cc3ccc4c(c3)OCO4)CC2)c2ccccc2c1=O` was tested. Which Potency did it give?
Answer: Its Potency is inconclusive: 39.8 µM [inhibitor, single point].

Question: How did the Potency turn out when `CC(C)C(=O)c1ccc(O)c(O)c1` was run?
Answer: The Potency was active: 25.1 µM.

Question: How did the Potency turn out when `CC1(C)CC(=O)C(C=NCC2CCN(C(=O)Cc3ccccc3)CC2)=C(O)C1` was run?
Answer: Its Potency is “inactive”.

Question: `N#CC1=C2SCCN2C(=O)C(C#N)C12CCCCC2` (centres undefined) was tested. Which Potency did it give?
Answer: The Potency was “inactive”.

Question: `COc1cc(S(=O)(=O)Nc2ccccc2C)ccc1Cl` was tested. Which Potency did it give?
Answer: The Potency was “inactive”.

Question: With `OCCN=C1CCCc2c1[nH]c1ccc(Cl)cc21` as the compound, how does the Potency read?
Answer: The Potency was inconclusive: 31.6 µM [inhibitor, single point].

Question: `CCC(=O)NC1=C(NC(C)c2ccccc2)C(=O)c2ccccc2C1=O` (centres undefined) was tested. Which Potency did it give?
Answer: Its Potency is “inactive”.

Question: How did the Potency turn out when `COc1ccc(-c2noc(C3CCCN(C(=O)Nc4ccccc4)C3)n2)cc1` (centres undefined) was run?
Answer: The Potency was inconclusive: 28.2 µM [inhibitor, partial curve].

Question: Which Potency does the source give for `COc1ccccc1CNC(=O)COC(=O)c1cc(-c2ccco2)nc2ccccc12` here?
Answer: The Potency was inconclusive: 35.5 µM [inhibitor, partial curve].

Question: `CCOC(=O)c1c(-c2ccc(F)cc2)cn2ccccc12` was tested. Which Potency did it give?
Answer: The Potency was inconclusive: 20 µM [inhibitor, partial curve].

Question: How did the Potency turn out when `CCCC1(C(=O)OC)C=C2C(=C(C)C(=O)C2C)CN1` (centres undefined) was run?
Answer: The Potency was inconclusive: 31.6 µM [inhibitor, single point].

Question: `Cc1ccc(C)c(N=Nc2ccc(O)c3ncccc23)c1` was tested. Which Potency did it give?
Answer: The Potency was inconclusive: 25.1 µM [inhibitor, single point].

Question: `S=C(N/N=C/c1ccccc1)N1CCOCC1` was tested. Which Potency did it give?
Answer: Its Potency is inconclusive: 35.5 µM [inhibitor, single point].

Question: For `CO/N=C(\C(=O)N[C@@H]1C(=O)N2C(C(=O)O)=C(CSc3nc(=O)c(O)nn3C)CSC12)c1csc(N)n1` (some centres undefined), which Potency is on record?
Answer: The Potency was inconclusive: 31.6 µM [inhibitor, single point].

Question: With `CCCNS(=O)(=O)c1ccc(NC(=O)c2ccccn2)cc1` as the compound, how does the Potency read?
Answer: Its Potency is “inactive”.

Question: With `O=C(O)CSc1nnc2c(n1)[nH]c1ccccc12` as the compound, how does the Potency read?
Answer: Its Potency is “inactive”.

Question: Which Potency does the source give for `Cc1ccc(-c2nc(Cl)nc3ccccc23)cc1` here?
Answer: Its Potency is inconclusive: 22.4 µM [inhibitor, partial curve].

Question: For `Cc1ccc(-c2cc(C(=O)N3N=C(C(F)F)CC3(O)C(F)F)c3ccccc3n2)cc1C` (centres undefined), which Potency is on record?
Answer: Its Potency is inconclusive: 31.6 µM [inhibitor, partial curve].

Question: For `O=C(c1ccc(Cl)cc1)C1CCCN(Cc2cnn(-c3ccccc3)c2)C1` (centres undefined), which Potency is on record?
Answer: The Potency was “inactive”.

Question: With `COC(=O)c1[nH]c2cccc(OC)c2c1NC(=O)CCN1CCC(C)CC1` as the compound, how does the Potency read?
Answer: Its Potency is inconclusive: 28.2 µM [inhibitor, partial curve].

Question: `Oc1ccc(C(=S)N2CCN(Cc3ccccc3)CC2)cc1` was tested. Which Potency did it give?
Answer: The Potency was “inactive”.

Question: `Cc1nnc2ccc(-c3ccc(NC(=O)c4ccco4)cc3)nn12` was tested. Which Potency did it give?
Answer: The Potency was inconclusive: 31.6 µM [inhibitor, partial curve].

Question: `COC(=O)c1scc2c(Oc3ccccc3)cc(C(F)(F)F)nc12` was tested. Which Potency did it give?
Answer: Its Potency is inconclusive: 2.82 µM [inhibitor, partial curve].

Question: For `COc1ccc2c(c1)[nH]c1c(=O)n(Cc3ccccn3)cnc12`, which Potency is on record?
Answer: The Potency was inconclusive: 39.8 µM [inhibitor, single point].

Question: `CC(C)NC(=O)NC(=O)COc1ncnc2sccc12` was tested. Which Potency did it give?
Answer: Its Potency is inconclusive: 25.1 µM [inhibitor, single point].

Question: `COc1ccc(-n2cc(CNCc3cccnc3)c(-c3cccc(F)c3)n2)cc1` was tested. Which Potency did it give?
Answer: The Potency was inconclusive: 15.8 µM [inhibitor, partial curve].

Question: For `CC(=O)NC1C(=O)N=C(SCC(=O)NCc2ccccc2)NC1=O` (centres undefined), which Potency is on record?
Answer: Its Potency is inconclusive: 20 µM [inhibitor, partial curve, poor fit].

Question: For `COC(=O)C(CC(C)C)NC(=O)c1ccc(F)cc1` (centres undefined), which Potency is on record?
Answer: The Potency was “inactive”.

Question: Which Potency does the source give for `N#CC1=C2SCN(c3ccccc3)CN2C(=O)CC1c1ccccc1Cl` (centres undefined) here?
Answer: Its Potency is inconclusive: 39.8 µM [inhibitor, single point].

Question: With `CCc1nc(N2CCC3(CC2)OCCO3)c2nnn(Cc3ccccc3Cl)c2n1` as the compound, how does the Potency read?
Answer: Its Potency is inconclusive: 35.5 µM [inhibitor, single point].

Question: For `COc1ccc(C(=O)NCC(=O)NCC(c2ccco2)N(C)C)cc1OC` (centres undefined), which Potency is on record?
Answer: Its Potency is inconclusive: 35.5 µM [inhibitor, single point].

Question: With `COc1ccc(OC)c(/C=N/NC(=O)CCc2n[nH]c(=O)[nH]c2=O)c1` as the compound, how does the Potency read?
Answer: The Potency was inconclusive: 28.2 µM [inhibitor, partial curve].

Question: `Cc1cccc(NC(=O)c2ccc(COc3ccc4ccccc4c3)o2)n1` was tested. Which Potency did it give?
Answer: Its Potency is inconclusive: 31.6 µM [inhibitor, single point].
